Single values are uncertain, as repeats are few or missing.
Tests used:
CHO-K1 [1] = assay: micronucleus frequency (% of nucleated events); higher = more micronuclei (genotoxic)
CHO-K1 [2] = assay: hypodiploid nuclei frequency (% of nucleated events); higher = more hypodiploid events (aneugenic)
CHO-K1 [3] = assay: relative survival (nuclei to bead ratio vs DMSO control) (% of vehicle control); higher = more surviving cells
Protocol: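 Flow-cytometric in vitro micronucleus assay (Litron MicroFlow) in CHO-K1 cells in 96-well plates, 19 concentrations (4.5-200 µM, n=1 per concentration). Without S9, cells were exposed for 24 h and sampled at 48 h. With Aroclor 1254-induced rat liver S9, cells were exposed for 3-4 h and sampled at 27-28 h. Read-outs are %MN and %hypodiploid nuclei relative to nucleated events, and relative survival as the nuclei-to-bead ratio versus the 1% DMSO vehicle control (x100).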
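Throughout, for hypodiploid nuclei frequency (% of nucleated events): hypodiploid nuclei gated on a flow cytometer with 488 nm excitation after SYTOX Green staining, cultures at 37 °C, positive controls vinblastine without S9 and cyclophosphamide with S9.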
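Throughout, for micronucleus frequency (% of nucleated events): cells lysed with nuclei stained by SYTOX Green, then micronucleus-gated events counted against nucleated events by flow cytometry with 488 nm excitation.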
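Throughout, for relative survival (nuclei to bead ratio vs DMSO control): Lysed-cell nuclei stained with SYTOX Green and counted against counting beads by flow cytometry at 488 nm excitation, with vinblastine (no S9) and cyclophosphamide (plus S9) as positive controls.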

OCCC(F)(F)C(F)(F)C(F)(F)C(F)(F)C(F)(F)C(F)(F)C(F)(F)C(F)(F)F [1,1,2,2-Tetrahydroperfluoro-1-decanol]
Details	hypodiploid nuclei frequency, CHO-K1 [2] [%]	micronucleus frequency, CHO-K1 [1] [%]	relative survival, CHO-K1 [3]
concentration: 4.5 (µM), S9 metabolic activation: with S9, exposure time: 3-4 hours	0.38	1.44	120
concentration: 4.5 (µM), S9 metabolic activation: without S9, exposure time: 24 hours	0.26	1.76	148
concentration: 5.63 (µM), S9 metabolic activation: with S9, exposure time: 3-4 hours	0.2	1.7	113
concentration: 5.63 (µM), S9 metabolic activation: without S9, exposure time: 24 hours	0.44	1.36	125
concentration: 7.04 (µM), S9 metabolic activation: with S9, exposure time: 3-4 hours	0.3	1.76	98.2
concentration: 7.04 (µM), S9 metabolic activation: without S9, exposure time: 24 hours	0.56	1.24	118
concentration: 8.8 (µM), S9 metabolic activation: with S9, exposure time: 3-4 hours	0.14	1.52	105
concentration: 8.8 (µM), S9 metabolic activation: without S9, exposure time: 24 hours	0.46	1.16	83.7
concentration: 11 (µM), S9 metabolic activation: with S9, exposure time: 3-4 hours	0.32	2.28	103
concentration: 11 (µM), S9 metabolic activation: without S9, exposure time: 24 hours	0.52	1.48	111
concentration: 13.7 (µM), S9 metabolic activation: with S9, exposure time: 3-4 hours	0.22	2.06	133
concentration: 13.7 (µM), S9 metabolic activation: without S9, exposure time: 24 hours	0.52	1.32	116
concentration: 17.2 (µM), S9 metabolic activation: with S9, exposure time: 3-4 hours	0.34	2.06	109
concentration: 17.2 (µM), S9 metabolic activation: without S9, exposure time: 24 hours	0.4	1.06	113
concentration: 21.5 (µM), S9 metabolic activation: with S9, exposure time: 3-4 hours	0.14	1.48	112
concentration: 21.5 (µM), S9 metabolic activation: without S9, exposure time: 24 hours	0.44	1.22	112
concentration: 26.8 (µM), S9 metabolic activation: with S9, exposure time: 3-4 hours	0.18	1.18	88.5
concentration: 26.8 (µM), S9 metabolic activation: without S9, exposure time: 24 hours	0.56	1.08	110
concentration: 33.6 (µM), S9 metabolic activation: with S9, exposure time: 3-4 hours	0.28	2.06	90.2
concentration: 33.6 (µM), S9 metabolic activation: without S9, exposure time: 24 hours	0.54	0.98	148
concentration: 41.9 (µM), S9 metabolic activation: with S9, exposure time: 3-4 hours	0.24	1.66	86
concentration: 41.9 (µM), S9 metabolic activation: without S9, exposure time: 24 hours	0.46	2.08	138
concentration: 52.4 (µM), S9 metabolic activation: with S9, exposure time: 3-4 hours	0.34	0.96	80.5
concentration: 52.4 (µM), S9 metabolic activation: without S9, exposure time: 24 hours	0.52	1.12	98.7
concentration: 65.5 (µM), S9 metabolic activation: with S9, exposure time: 3-4 hours	0.16	1.2	95.9
concentration: 65.5 (µM), S9 metabolic activation: without S9, exposure time: 24 hours	0.7	1.54	112
concentration: 81.9 (µM), S9 metabolic activation: with S9, exposure time: 3-4 hours	0.16	1.76	90
concentration: 81.9 (µM), S9 metabolic activation: without S9, exposure time: 24 hours	1	1.52	112
concentration: 102 (µM), S9 metabolic activation: with S9, exposure time: 3-4 hours	0.38	3.3	73.2
concentration: 102 (µM), S9 metabolic activation: without S9, exposure time: 24 hours	0.74	1.56	87.3
concentration: 128 (µM), S9 metabolic activation: with S9, exposure time: 3-4 hours	0.12	1.8	102
concentration: 128 (µM), S9 metabolic activation: without S9, exposure time: 24 hours	0.52	2.26	67
concentration: 160 (µM), S9 metabolic activation: with S9, exposure time: 3-4 hours	0.28	2.12	92
concentration: 160 (µM), S9 metabolic activation: without S9, exposure time: 24 hours	–	–	38.2
concentration: 200 (µM), S9 metabolic activation: with S9, exposure time: 3-4 hours	0.24	3.96	87.6
concentration: 200 (µM), S9 metabolic activation: without S9, exposure time: 24 hours	–	–	7.09

CCCCCCc1ccc(O)cc1O [4-Hexylresorcinol]
Details	hypodiploid nuclei frequency, CHO-K1 [2] [%]	micronucleus frequency, CHO-K1 [1] [%]	relative survival, CHO-K1 [3]
concentration: 4.5 (µM), S9 metabolic activation: with S9, exposure time: 3-4 hours	0.16	0.56	107
concentration: 4.5 (µM), S9 metabolic activation: without S9, exposure time: 24 hours	5.68	3.94	118
concentration: 5.63 (µM), S9 metabolic activation: with S9, exposure time: 3-4 hours	0.32	1.16	92.2
concentration: 5.63 (µM), S9 metabolic activation: without S9, exposure time: 24 hours	11.2	7.86	109
concentration: 7.04 (µM), S9 metabolic activation: with S9, exposure time: 3-4 hours	0.18	1.04	92.7
concentration: 7.04 (µM), S9 metabolic activation: without S9, exposure time: 24 hours	17.8	14.3	100
concentration: 8.8 (µM), S9 metabolic activation: with S9, exposure time: 3-4 hours	0.24	0.84	99.7
concentration: 8.8 (µM), S9 metabolic activation: without S9, exposure time: 24 hours	25.2	24.7	82.9
concentration: 11 (µM), S9 metabolic activation: with S9, exposure time: 3-4 hours	0.36	0.88	102
concentration: 11 (µM), S9 metabolic activation: without S9, exposure time: 24 hours	31.4	32.7	67.1
concentration: 13.7 (µM), S9 metabolic activation: with S9, exposure time: 3-4 hours	0.38	0.76	115
concentration: 13.7 (µM), S9 metabolic activation: without S9, exposure time: 24 hours	33	35.5	59.4
concentration: 17.2 (µM), S9 metabolic activation: with S9, exposure time: 3-4 hours	0.46	0.86	100
concentration: 17.2 (µM), S9 metabolic activation: without S9, exposure time: 24 hours	29.4	40.4	51.5
concentration: 21.5 (µM), S9 metabolic activation: with S9, exposure time: 3-4 hours	0.22	0.9	91.7
concentration: 21.5 (µM), S9 metabolic activation: without S9, exposure time: 24 hours	25	44.7	45.3
concentration: 26.8 (µM), S9 metabolic activation: with S9, exposure time: 3-4 hours	0.28	1.26	85.3
concentration: 26.8 (µM), S9 metabolic activation: without S9, exposure time: 24 hours	–	–	31.6
concentration: 33.6 (µM), S9 metabolic activation: with S9, exposure time: 3-4 hours	0.3	1.34	72.7
concentration: 33.6 (µM), S9 metabolic activation: without S9, exposure time: 24 hours	–	–	29.4
concentration: 41.9 (µM), S9 metabolic activation: with S9, exposure time: 3-4 hours	0.14	1.6	63.5
concentration: 41.9 (µM), S9 metabolic activation: without S9, exposure time: 24 hours	–	–	26.5
concentration: 52.4 (µM), S9 metabolic activation: with S9, exposure time: 3-4 hours	0.3	1.54	68.8
concentration: 52.4 (µM), S9 metabolic activation: without S9, exposure time: 24 hours	–	–	30
concentration: 65.5 (µM), S9 metabolic activation: with S9, exposure time: 3-4 hours	0.2	1.68	51.4
concentration: 65.5 (µM), S9 metabolic activation: without S9, exposure time: 24 hours	–	–	23.8
concentration: 81.9 (µM), S9 metabolic activation: with S9, exposure time: 3-4 hours	0.38	1.44	57.1
concentration: 81.9 (µM), S9 metabolic activation: without S9, exposure time: 24 hours	–	–	17.4
concentration: 102 (µM), S9 metabolic activation: with S9, exposure time: 3-4 hours	0.38	1.38	55.3
concentration: 102 (µM), S9 metabolic activation: without S9, exposure time: 24 hours	–	–	9.13
concentration: 128 (µM), S9 metabolic activation: with S9, exposure time: 3-4 hours	0.22	1.08	65.2
concentration: 128 (µM), S9 metabolic activation: without S9, exposure time: 24 hours	–	–	11.4
concentration: 160 (µM), S9 metabolic activation: with S9, exposure time: 3-4 hours	0.36	2.24	50
concentration: 160 (µM), S9 metabolic activation: without S9, exposure time: 24 hours	–	–	10.8
concentration: 200 (µM), S9 metabolic activation: with S9, exposure time: 3-4 hours	–	–	19.3
concentration: 200 (µM), S9 metabolic activation: without S9, exposure time: 24 hours	–	–	13.5

CCc1nc(N)nc(N)c1-c1ccc(Cl)cc1 [Pyrimethamine]
Details	hypodiploid nuclei frequency, CHO-K1 [2] [%]	micronucleus frequency, CHO-K1 [1] [%]	relative survival, CHO-K1 [3]
concentration: 4.5 (µM), S9 metabolic activation: with S9, exposure time: 3-4 hours	0.26	0.98	88.7
concentration: 4.5 (µM), S9 metabolic activation: without S9, exposure time: 24 hours	0.54	0.96	111
concentration: 5.63 (µM), S9 metabolic activation: with S9, exposure time: 3-4 hours	0.2	1.98	88.7
concentration: 5.63 (µM), S9 metabolic activation: without S9, exposure time: 24 hours	0.5	1.04	115
concentration: 7.04 (µM), S9 metabolic activation: with S9, exposure time: 3-4 hours	0.34	1.08	100
concentration: 7.04 (µM), S9 metabolic activation: without S9, exposure time: 24 hours	0.56	1.2	108
concentration: 8.8 (µM), S9 metabolic activation: with S9, exposure time: 3-4 hours	0.18	0.9	76.7
concentration: 8.8 (µM), S9 metabolic activation: without S9, exposure time: 24 hours	0.56	1.28	122
concentration: 11 (µM), S9 metabolic activation: with S9, exposure time: 3-4 hours	0.12	1.14	90.3
concentration: 11 (µM), S9 metabolic activation: without S9, exposure time: 24 hours	0.6	1.5	93.8
concentration: 13.7 (µM), S9 metabolic activation: with S9, exposure time: 3-4 hours	0.24	0.88	110
concentration: 13.7 (µM), S9 metabolic activation: without S9, exposure time: 24 hours	0.38	1.4	122
concentration: 17.2 (µM), S9 metabolic activation: with S9, exposure time: 3-4 hours	0.34	1.16	100
concentration: 17.2 (µM), S9 metabolic activation: without S9, exposure time: 24 hours	0.62	1.52	97.5
concentration: 21.5 (µM), S9 metabolic activation: with S9, exposure time: 3-4 hours	0.16	1.56	110
concentration: 21.5 (µM), S9 metabolic activation: without S9, exposure time: 24 hours	0.62	1.5	74.6
concentration: 26.8 (µM), S9 metabolic activation: with S9, exposure time: 3-4 hours	0.22	1.36	94.6
concentration: 26.8 (µM), S9 metabolic activation: without S9, exposure time: 24 hours	0.7	1.32	79.1
concentration: 33.6 (µM), S9 metabolic activation: with S9, exposure time: 3-4 hours	0.32	1.6	95.8
concentration: 33.6 (µM), S9 metabolic activation: without S9, exposure time: 24 hours	0.68	0.96	143
concentration: 41.9 (µM), S9 metabolic activation: with S9, exposure time: 3-4 hours	0.24	1.28	97.7
concentration: 41.9 (µM), S9 metabolic activation: without S9, exposure time: 24 hours	0.64	1.3	79.1
concentration: 52.4 (µM), S9 metabolic activation: with S9, exposure time: 3-4 hours	0.34	1.7	104
concentration: 52.4 (µM), S9 metabolic activation: without S9, exposure time: 24 hours	0.7	1.06	85
concentration: 65.5 (µM), S9 metabolic activation: with S9, exposure time: 3-4 hours	0.2	1.24	102
concentration: 65.5 (µM), S9 metabolic activation: without S9, exposure time: 24 hours	0.72	1.18	81.3
concentration: 81.9 (µM), S9 metabolic activation: with S9, exposure time: 3-4 hours	0.24	1.02	99
concentration: 81.9 (µM), S9 metabolic activation: without S9, exposure time: 24 hours	0.86	1.16	88
concentration: 102 (µM), S9 metabolic activation: with S9, exposure time: 3-4 hours	0.3	1.42	93.4
concentration: 102 (µM), S9 metabolic activation: without S9, exposure time: 24 hours	0.98	1.44	92.3
concentration: 128 (µM), S9 metabolic activation: with S9, exposure time: 3-4 hours	0.26	1.12	87.9
concentration: 128 (µM), S9 metabolic activation: without S9, exposure time: 24 hours	0.62	1.4	92.3
concentration: 160 (µM), S9 metabolic activation: with S9, exposure time: 3-4 hours	0.1	0.98	106
concentration: 160 (µM), S9 metabolic activation: without S9, exposure time: 24 hours	0.74	1.74	93.1
concentration: 200 (µM), S9 metabolic activation: with S9, exposure time: 3-4 hours	0.26	1.16	83.2
concentration: 200 (µM), S9 metabolic activation: without S9, exposure time: 24 hours	0.8	2.2	55.4

— the supplement of paper PMC9151546
